Some of the results follow. Single values are uncertain, as repeats are few or missing.
These compounds were tested on A375 (assay: cell count relative to DMSO control; melanoma cells; higher = more viable cells). Conditions: library dose: standard library concentration; 72 h.
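Also: cells treated in 1,536-well plates, then fixed and DAPI-stained, with nuclei counted from automated high-throughput microscope images.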

| SMILES | cell count |
| --- | --- |
| C#Cc1cccc(Nc2ncnc3cc(OCCOC)c(OCCOC)cc23)c1 [erlotinib] + C=CCn1c(=O)c2cnc(Nc3ccc(N4CCN(C)CC4)cc3)nc2n1-c1cccc(C(C)(C)O)n1 [MK1775] (first compound 4 µM, partner dose 0.1 µM) | 67.3% |
| COCC[n+]1c2c(n(Cc3cnccn3)c1C)C(=O)c1ccccc1C2=O + O=C(O)c1ccc(-c2c[nH]c3ncc(-c4ccccc4)cc23)cc1C1CCCC1 [GSK650394] (first compound 0.002 µM, partner dose 0.8 µM) | 92% |
| OCc1c[nH]c2ccccc12 [Indole-3-carbinol] + NC(=O)Nc1cc(-c2cccc(F)c2)sc1C(=O)N[C@H]1CCCNC1 [AZD7762] (first compound 4 µM, partner dose 0.1 µM) | 66% |
| Clc1ccc(Nc2nnc(Cc3ccncc3)c3ccccc23)cc1 [vatalanib] + Cn1nnc2c(C(N)=O)ncn2c1=O [temozolomide] (first compound 10 µM, partner dose 10 µM) | 91.2% |
| Nc1cccc2c1CN(C1CCC(=O)NC1=O)C2=O (stereo not given) [lenalidomide] + C[C@]1(c2nc3c(C(N)=O)cccc3[nH]2)CCCN1 [Veliparib] (first compound 5 µM, partner dose 7 µM) | 101% |

The compounds below were run on C32 in the same assay as above. Conditions: library dose: standard library concentration; 72 h.

| SMILES | cell count |
| --- | --- |
| C#Cc1cccc(Nc2ncnc3cc(OCCOC)c(OCCOC)cc23)c1 [erlotinib] + COc1cc2c(Oc3ccc4[nH]c(C)cc4c3F)ncnc2cc1OCCCN1CCCC1 [cediranib] (first compound 4 µM, partner dose 2 µM) | 96.4% |
| Clc1ccc(Nc2nnc(Cc3ccncc3)c3ccccc23)cc1 [vatalanib] + Cn1c(Nc2ccc(C(F)(F)F)cc2)nc2cc(Oc3ccnc(-c4ncc(C(F)(F)F)[nH]4)c3)ccc21 [CHIR265] (first compound 10 µM, partner dose 0.4 µM) | 50.9% |
| Nc1cccc2c1CN(C1CCC(=O)NC1=O)C2=O (stereo not given) [lenalidomide] + CO[C@@H]1[C@H](N(C)C(=O)c2ccccc2)C[C@H]2O[C@]1(C)n1c3ccccc3c3c4c(c5c6ccccc6n2c5c31)C(=O)NC4 [Midostaurin] (first compound 5 µM, partner dose 0.4 µM) | 98.8% |
| Cn1c(Nc2ccc(C(F)(F)F)cc2)nc2cc(Oc3ccnc(-c4ncc(C(F)(F)F)[nH]4)c3)ccc21 + COCC[n+]1c2c(n(Cc3cnccn3)c1C)C(=O)c1ccccc1C2=O [YM155] (first compound 0.4 µM, partner dose 0.002 µM) | 69.6% |
| Clc1ccc(Nc2nnc(Cc3ccncc3)c3ccccc23)cc1 [vatalanib] + CN(C)S(=O)(=O)c1ccc2c(c1)/C(=C/c1cc3c([nH]1)CCCC3)C(=O)N2 [SU6656] (first compound 10 µM, partner dose 2 µM) | 75.7% |
| OCc1c[nH]c2ccccc12 [Indole-3-carbinol] + C[C@@H]1CCN(C(=O)CC#N)C[C@@H]1N(C)c1ncnc2[nH]ccc12 [CP690550] (first compound 4 µM, partner dose 5 µM) | 101% |
| Clc1ccc(Nc2nnc(Cc3ccncc3)c3ccccc23)cc1 [vatalanib] + COc1cc(Nc2ncc(F)c(Nc3ccc4c(n3)NC(=O)C(C)(C)O4)n2)cc(OC)c1OC [Tamatinib] (first compound 10 µM, partner dose 2 µM) | 78.1% |
| C#Cc1cccc(Nc2ncnc3cc(OCCOC)c(OCCOC)cc23)c1 [erlotinib] + Cc1ccc(NC(=O)c2cccc(N(C)C)c2)cc1NC(=O)c1ccc(O)cc1 [ZM336372] (first compound 4 µM, partner dose 10 µM) | 82% |
| Nc1cccc2c1CN(C1CCC(=O)NC1=O)C2=O (stereo not given) [lenalidomide] + CN(C)S(=O)(=O)c1ccc2c(c1)/C(=C/c1cc3c([nH]1)CCCC3)C(=O)N2 [SU6656] (first compound 5 µM, partner dose 2 µM) | 99.3% |
| Cn1c(Nc2ccc(C(F)(F)F)cc2)nc2cc(Oc3ccnc(-c4ncc(C(F)(F)F)[nH]4)c3)ccc21 + CN(NC(=O)CC(=O)NN(C)C(=S)c1ccccc1)C(=S)c1ccccc1 [STA4783] (first compound 0.4 µM, partner dose 0.03 µM) | 29.2% |

Reference: the supplement of paper PMC4604168 (melanoma cell lines)
